The values that follow come from patent US9944700B2, “Notch2 binding molecules for treating respiratory diseases” (NOVARTIS AG, priority 2013, dated 2018).

Assay [1] concerns Human airway basal cells grown in 3D. Briefly: 3D bronchosphere cultures treated with Notch receptor-specific blocking antibodies, qPCR of cell type markers. It counts as cell-based. As for the experimental part: Human bronchial epithelial (HBE) cells and culture media were obtained from Lonza. Air-liquid interface cultures using passage 2 (P2) cells were performed as previously described (Danahay, H. et al., American journal of physiology. Lung cellular and molecular physiology 282, L226-236 (2002)). For three-dimensional culturing of HBE cells, P1 cells were trypsinized and resuspended (30,000 cells/ml) in HBE differentiation media containing 5% growth factor-reduced Matrigel (BD Biosciences). 20 μl of suspension was plated in each well of a 384-well plate (Greiner) pre-coated with 10 μl of a 25% solution of Matrigel (BD Biosciences) in HBE differentiation media. Wells were fed or treated at day 2 and day 8 of culture by adding 30 μl of differentiation media containing the appropriate treatment. Three-dimensional cultures were analyzed at the time points indicated.
RNA was isolated from 3D bronchosphere cultures with Trizol (Invitrogen), using manufacturer's specifications. To isolate RNA from mouse tissue, approximately 20 mg of tissue was placed in a 1.5 ml eppendorf tube with 1 ml of Buffer RLT Plus (Qiagen). A 5 mm stainless steel bead (Qiagen) was added to the tube, and the tissue was sheared using a Tissue Lyser II (Qiagen). RNA from the sheared tissue was purified using the RNeasy Plus Mini Kit (Qiagen), using manufacturer's specifications. TaqMan Reverse Trascription Reagents (Invitrogen) were used to generate cDNA from 1 μg of total RNA. Quantitative PCR was performed on a ViiA7 Real-Time PCR System (Applied Biosystems), using 40 ng of cDNA per reaction with the following Taqman probes (Applied Biosystems): MUC5AC, Hs01365601_m1; MUC5B, Hs00861588_m1; FOXA3, Hs00270130_m1; FOXJ1, Hs00230964_m1; DNAI2, Hs01001544_m1; TP63, Hs00978340_m1; ITGA6, Hs01041011_m1; GAPDH, Hs99999905_m1; Muc5ac, Mm012718_m1; Foxj1, Mm012367279_m1; Trp63, Mm00495788_m1; Gapdh, Mm99999915_g1. […]
On the technique in general: Quantitative PCR measures a nucleic acid by following its amplification.

Assay [2] concerns established IL-13-driven goblet cell metaplasia. Briefly: Therapeutic treatment with anti-Notch2 antibody in vivo (IL-13 mouse model). To be noted: antibody D3 20 mg/kg i.p. days 4, 6, 8, 10. The method, then: RNA was isolated from 3D bronchosphere cultures with Trizol (Invitrogen), using manufacturer's specifications. To isolate RNA from mouse tissue, approximately 20 mg of tissue was placed in a 1.5 ml eppendorf tube with 1 ml of Buffer RLT Plus (Qiagen). A 5 mm stainless steel bead (Qiagen) was added to the tube, and the tissue was sheared using a Tissue Lyser II (Qiagen). RNA from the sheared tissue was purified using the RNeasy Plus Mini Kit (Qiagen), using manufacturer's specifications. TaqMan Reverse Trascription Reagents (Invitrogen) were used to generate cDNA from 1 μg of total RNA. Quantitative PCR was performed on a ViiA7 Real-Time PCR System (Applied Biosystems), using 40 ng of cDNA per reaction with the following Taqman probes (Applied Biosystems): MUC5AC, Hs01365601_m1; MUC5B, Hs00861588_m1; FOXA3, Hs00270130_m1; FOXJ1, Hs00230964_m1; DNAI2, Hs01001544_m1; TP63, Hs00978340_m1; ITGA6, Hs01041011_m1; GAPDH, Hs99999905_m1; Muc5ac, Mm012718_m1; Foxj1, Mm012367279_m1; Trp63, Mm00495788_m1; Gapdh, Mm99999915_g1.
Female Balb/c mice (20-25 g) were obtained from Charles River (Morgate, UK). Mice were housed under specific pathogen free conditions and were provided with food and water ad libitum. Experiments were performed in accordance with the UK Animals Scientific Procedures Act 1986.
Mice received 0.5 μg of recombinant mouse IL-13 (Ebiosciences, UK) or phosphate-buffered saline (PBS) intranasally on 10 consecutive (days 1-10). Mice received either 20 mg/kg neutralizing anti-Notch2 antibody α-N2 (antibody D3 above) or isotype control IgG, intraperitoneally 2 hours before intranasal challenge with either IL-13 or PBS, on days 4, 6, 8 & 10 only. An additional group of mice received 0.5 μg of recombinant mouse IL-13 (Ebiosciences, UK) or phosphate-buffered saline (PBS) intranasally on 3 consecutive (days 1-3) only.
Mice were euthanized 24 hours after their final PBS or IL-13 administration. The left lungs were excised, inflated with 10% neutral buffered formalin (NBF) and preserved in NBF. Lungs were embedded in paraffin wax and lung sections obtained for each animal. Sections were stained with PAS stain for mucus.
PAS-positive staining was quantified in lung sections using Definiens Image Analysis software. Two distinct lung sections were analyzed per mouse and the total area of PAS positive staining within the sections was determined. The PAS positive staining was normalized to the area of tissue analyzed and represented as ‘Relative Area PAS Positive Mucus (%)’.
Data are expressed as mean±SEM. Statistical significance was determined using a parametric one way ANOVA and Dunnetts post-test. GraphPad Prism (version 5.04) was used to generate graphs and perform statistical analysis. ***p<0.001 denotes statistically significant difference from the isotype control group.

Assay [3] deals with house dust mite-induced goblet cell formation. Briefly: Therapeutic treatment in a chronic house dust mite model. To be noted: antibody D3 20 mg/kg i.p. days 22, 24, 26, 28, 30; HDM intranasally 5 weeks; FIG. 8. Format: in vivo, mouse. As for the experimental part:
Female Balb/c mice (20-25 g) were obtained from Charles River (Morgate, UK). Mice were housed under specific pathogen free conditions and were provided with food and water ad libitum. Experiments were performed in accordance with the UK Animals Scientific Procedures Act 1986. Mice received 25 μg of house dust mite (HDM; D.pteronyssinus, Greer laboratories, US) or saline intranasally on 5 days a week for 5 weeks (days 1-5, 8-12, 15-19, 22-26, 29-31). Mice received either 20 mg/kg neutralizing anti-Notch2 antibody α-N2 (antibody D3 above) or isotype control IgG, intraperitoneally 2 hours before intranasal challenge with HDM on days 22, 24, 26, 28 and 30 only. Mice were euthanized 24 hours after their final saline or HDM administration (day 32). […] Mucins were detected within the airways of the sections by a two-stage immunoperoxidase method using Ulex Europaeus agglutinin-1 (UEA-1) (Sigma, UK). UEA-1 levels were assessed in the lung sections using Imaging Associates KS400 version 3.0 image analyser. Ten airways were analyzed per mouse and the area of UEA-1 positive staining within the airways was determined. The UEA-1 positive staining was normalized to the area of airway analyzed and represented as ‘UEA-1 stained area per micron of epithelia’. Data are expressed as mean±SEM. Statistical significance was determined using a parametric one way ANOVA and Dunnetts post-test. […]

B1: D3: anti-Notch2 antagonist IgG1 antibody, heavy chain SEQ ID NO: 3 (N-terminal glutamine), light chain SEQ ID NO: 4; sole antibody in therapeutic models (antibody)
heavy: QVQLVESGGGLVQPGGSLRLSCAAGYTFSSYGMSWVRQAPGKGLEWVSYIYPYSGATYYADSVKGRFTISADTSKNTAYLQMNSLRAEDTAVYYCARHSGYYRISSAMDVWGQGTLVTVSSASTKGPSVFPLAPSSKSTSGGTAALGCLVKDYFPEPVTVSWNSGALTSGVHTFPAVLQSSGLYSLSSVVTVPSSSLGTQTYICNVNHKPSNTKVDKRV[not shown - human IgG1 Fc]
light: DIQMTQSPSSLSASVGDRVTITCRASQNIKRFLAWYQQKPGKAPKLLIYGASTRESGVPSRFSGSGSGTDFTLTISSLQPEDFATYYCQQYYRSPHTFGQGTKVEIKRTVAAPSVFIFPPSDEQLKSGTASVVCLLNNFYPREAKVQWKVDNALQSGNSQESVTEQDSKDSTYSLSSTLTLSKADYEKHKVYACEVTHQGLSSPVTKSFNRGEC
modifications: Synthetic human sequence
As for B1, the “effect on basal cell markers p63 and ITGA6” value in assay [1] (FIG. 4c) is listed as “Neither antibody showed any significant effect”. Moreover, the “goblet cell formation: expression of goblet cell markers MUC5AC, MUC5B and FOXA3” value in assay [1] (compared with IgG control or anti-Notch1 / anti-Notch3 antibodies, FIG. 4a) was “decreased”. Moreover, in assay [1] (compared with IgG control or anti-Notch1 / anti-Notch3 antibodies, FIG. 4b), the “ciliated cell formation: expression of ciliated cells markers FOXJ1 and DNAI2” value is “increasing”. The “effect on basal cell marker Trp63, qPCR of whole lung tissue” value in assay [2] (FIG. 7c bottom) is on record as “no effect”. For the same molecule, the “ciliated cell marker Foxj1, qPCR of whole lung tissue” value in assay [2] (FIG. 7c middle) was “concomitant increase”. Further, the “established goblet cell formation (PAS staining of lung sections)” value in assay [2] (IL-13 intranasally days 1-10, FIG. 7a, 7b) is on record as “reversed”. For the same molecule, in assay [2] (confirms reversal, FIG. 7c top), the “Muc5ac expression levels, qPCR of whole lung tissue RNA” value is on record as “verified this observation”. Moreover, the “goblet cell formation (UEA-1 staining of lung sections)” value in assay [3] is “reversed”.
